Source: the supplement of paper PMC3334620
The full ranking holds about 33,000 sequences; the median of “E-score (-0.5 to 0.5)” is about -0.032, and the highest 2% start at about 0.36. The list shows a part of the results.

What follows are sequences tested against T1, Sko1 (UniProt Q02100) (assay: PBM E-score (8-mer binding enrichment) (E-score (-0.5 to 0.5)); higher = stronger / more preferred TF binding; most listed sequences are background and not binding sites). Conditions: protein concentration: 200 nM; construct: GST-full length.
T1 sequence: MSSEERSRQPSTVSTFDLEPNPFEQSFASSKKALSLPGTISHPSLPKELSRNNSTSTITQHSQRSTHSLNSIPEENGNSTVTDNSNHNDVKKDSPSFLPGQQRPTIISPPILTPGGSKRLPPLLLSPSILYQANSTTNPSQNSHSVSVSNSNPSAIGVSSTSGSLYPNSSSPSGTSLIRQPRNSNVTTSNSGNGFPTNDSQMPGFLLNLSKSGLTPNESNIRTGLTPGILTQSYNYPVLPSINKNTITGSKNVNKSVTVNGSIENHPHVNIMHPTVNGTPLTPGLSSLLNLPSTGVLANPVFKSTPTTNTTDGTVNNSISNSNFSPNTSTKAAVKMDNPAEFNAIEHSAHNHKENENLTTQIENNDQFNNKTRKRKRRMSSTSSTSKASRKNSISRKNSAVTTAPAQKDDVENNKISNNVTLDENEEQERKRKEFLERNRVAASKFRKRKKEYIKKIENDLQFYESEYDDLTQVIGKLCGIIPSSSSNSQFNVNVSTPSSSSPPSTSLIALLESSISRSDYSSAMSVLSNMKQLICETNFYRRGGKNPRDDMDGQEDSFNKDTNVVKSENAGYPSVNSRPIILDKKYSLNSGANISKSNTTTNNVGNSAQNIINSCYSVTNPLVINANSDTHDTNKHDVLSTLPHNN
In short: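 Yeast transcription factors, full-length or as DNA-binding domains, were expressed with a GST tag using PURExpress in vitro transcription/translation. At about 100-200 nM they were applied to universal all-10-mer Agilent arrays, double-stranded by primer extension on fresh or once-stripped slides. Fluorescent anti-GST detected bound protein, and masliner normalised the scans. E-scores for ungapped eight-base words, pooled with reverse complements, came from the Universal PBM Analysis Suite.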

| Sequence | PBM E-score |
| --- | --- |
| GATGTCGC | 0.129 |
| CTCATACC | 0.0267 |
| GATTGGGA | -0.113 |
| CTGGTGGC | -0.195 |
| CGCTAGTA | -0.0338 |
| AATCTCAG | -0.0427 |
| GCTTCACA | -0.172 |
| ACTTCTTG | 0.0423 |
| GCTCAAAC | -0.0717 |
| GCGAGCAC | -0.0809 |
| ATTATGAA | 0.208 |
| AGTCGCAT | -0.0629 |
| CGTTTTCA | 0.194 |
| GTGTTCGA | 0.101 |
| AAACGTCC | 0.13 |
| CCGCCCCG | -0.0978 |
| ATAAAATA | 0.296 |
| AAGTAGAT | -0.00622 |
| ACGATGCG | 0.137 |
| CGCTCACG | -0.0319 |
| ACTGCCTG | -0.0718 |
| ACGTGAAT | 0.352 |
| AACGTACG | 0.398 |
| GCGGCTAC | 0.00144 |
| CGTCTACC | 0.109 |

| Sequence | PBM E-score |
| --- | --- |
| AGGTGGAC | -0.246 |
| GTTCCGCA | 0.00536 |
| GAACGGTA | 0.0791 |
| AGGGGTTC | -0.404 |
| AATTGGCA | -0.103 |
| ATCTTGAC | 0.0398 |
| CCAGTACA | -0.0729 |
| CGTGAATC | 0.13 |
| GGTCCAGA | -0.155 |
| CGTTGGTA | 0.155 |
| ACCGCCCG | -0.373 |
| CACATGTA | 0.173 |
| CCCAGTTA | -0.349 |
| AGTCTCAT | -0.131 |
| CTGTATTA | 0.0596 |
| AAGTCGGG | -0.167 |
| CCCAGTGA | -0.0739 |
| GACTTTGA | -0.0083 |
| ATAATATC | 0.162 |
| CTAGGGAA | -0.227 |
| CTATTGGA | 0.0191 |
| CTCGACAC | -0.0253 |
| ACATGCAC | 0.0263 |
| CCGTAGGC | -0.293 |
| GACAGCCC | -0.284 |

| Sequence | PBM E-score |
| --- | --- |
| GTCACCGA | 0.24 |
| GGATAGTA | 0.0727 |
| CTGATTAC | 0.273 |
| TATTAGCA | 0.0657 |
| CCCCATCG | -0.0523 |
| CGGACATA | -0.0121 |
| ATACGGCC | -0.0724 |
| CGACTCCA | -0.217 |
| GGTCGATA | -0.11 |
| GAGATGAC | 0.254 |
| GCCAAATA | 0.0494 |
| GCCGATCC | -0.179 |
| GTGGTGCA | -0.0179 |
| AACCAGAC | -0.0273 |
| CCATCTGC | -0.0664 |
| AGTGCAAC | -0.0845 |
| GTGCTCGA | 0.0264 |
| GTGTGGTA | 0.0525 |
| AAACGCAA | 0.335 |
| GAGCATCC | -0.287 |
| CGCAATAC | 0.353 |
| CCGTCCAG | -0.146 |
| CCGCGTAG | 0.0625 |
| TAACGCAA | 0.312 |
| GTGCCATA | 0.0178 |

| Sequence | PBM E-score |
| --- | --- |
| GATGATGC | 0.287 |
| GCTAAGCC | -0.23 |
| GGATACTA | -0.192 |
| GAACGTTA | 0.18 |
| ACACAGGC | -0.161 |
| AAGAGTGG | -0.237 |
| GGAACCAA | -0.153 |
| GATCCCCC | -0.38 |
| GGTCTAGA | 0.0496 |
| CATTACGG | 0.292 |
| GCGCATAC | 0.103 |
| CACGGTAA | -0.0239 |
| CTCCTCAA | -0.203 |
| CGCTAGCC | -0.238 |
| GTTCCCAA | -0.141 |
| CCGATATA | 0.0219 |
| CTCCCCAA | -0.143 |
| AATTATTA | 0.298 |
| ATCTAAAG | 0.00277 |
| CTTAGGCC | -0.202 |
| CCGTTCAG | -0.294 |
| AGTTGCCG | -0.0106 |
| CCTTTTCG | 0.0232 |
| ACGTCTAA | 0.344 |
| CGCAACAC | 0.23 |

| Sequence | PBM E-score |
| --- | --- |
| GCGCAACC | -0.162 |
| GGCCAGAA | -0.216 |
| CAGACGAA | 0.0971 |
| CGCTTCGA | -0.159 |
| AAACCGCG | 0.0382 |
| CGAGCAAA | -0.291 |
| CCGAGATA | 0.00305 |
| ACTACTTA | 0.024 |
| TCCCGGGA | -0.183 |
| CCTCGGCA | -0.133 |
| ACAACAAA | 0.225 |
| CTCTGGAA | 0.0683 |
| AAGCACCG | -0.293 |
| CACTGGAC | -0.0032 |
| GCGCCTGA | -0.152 |
| ATAGGGAT | -0.104 |
| GTCACAAC | 0.182 |
| GCGAGGAC | -0.251 |
| CGACGGAA | -0.105 |
| CTTGCTTC | 0.0228 |
| AGTTCATA | 0.0294 |
| AGAAATCA | 0.0843 |
| CCCCTAGA | -0.22 |
| CCACACAC | -0.0596 |
| CTCCGGAC | -0.168 |

| Sequence | PBM E-score |
| --- | --- |
| AACGCGCG | 0.185 |
| ATGGAAAT | 0.131 |
| GGGATACA | -0.321 |
| GGCAGCGA | -0.28 |
| ACCGAGGC | -0.319 |
| GACGGTCA | 0.0778 |
| GGTCTCGA | -0.126 |
| CTACGCAA | 0.414 |
| CCTAGCAG | -0.253 |
| GTTGGTTA | 0.149 |
| AGTCTTAT | 0.111 |
| AGTTTACG | 0.354 |
| CACCTGGG | -0.194 |
| AGTGATGG | -0.0618 |
| AGCCACGA | -0.218 |
| CCATCGAC | -0.255 |
| ATGGTAAC | 0.15 |
| TAGAAAAA | 0.128 |
| AACTATGA | 0.195 |
| GAACGTCC | 0.117 |
| ACTTAGTG | 0.00172 |
| AGGCCATA | -0.301 |
| AGGATAAC | -0.0505 |
| ATCGATAC | 0.0878 |
| GCCACGTA | 0.421 |

| Sequence | PBM E-score |
| --- | --- |
| CCCGCAGC | -0.313 |
| CTATCTGC | -0.161 |
| GGGAAATA | 0.0114 |
| GGCAGTTA | -0.0613 |
| CAACGGCA | -0.157 |
| GATCGCAA | 0.0791 |
| CGCGGTCC | -0.202 |
| CATGCTTC | -0.0498 |
| AAATGAAC | 0.075 |
| GTCATTAA | 0.393 |
| GACAGATA | 0.0381 |
| CAGCTACG | 0.265 |
| CAGAGCGG | -0.134 |
| AGTTGTTG | -0.114 |
| CCTGCCTA | -0.201 |
| ATATACTA | 0.103 |
| CCCGTGTA | -0.302 |
| TCAGTCGA | 0.0544 |
| CCTGAGAA | 0.0886 |
| AAGAAACG | 0.169 |
| GGATCCGA | -0.184 |
| GGCTACCC | -0.329 |
